Test results taken from the RNAGym collection of RNA variant scans (doi:10.1093/nar/gkz1192).
Read counts are not given, so values of variants with three or more changes are uncertain.

B1: CPEB3 Ribozyme (parent)
chain: UAACAGGGGGCCACAGCAGAAGCGUUCACGUCGCAGCCCCUGUCAGAUUCUGGUGAAUCUGCGAAUUCUGCUGUAUAUCUC

Variants of: B1
Test: self-cleavage, relative activity (ratio to wild type); higher = more cleavage; in vitro, sequencing
In short: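 CPEB3 self-cleaving ribozyme mutant libraries were made by rounds of error-prone PCR, barcoded, and transcribed in vitro with T7 RNA polymerase for 5 hours at 37°C. Cleavage occurred during transcription and a 15 min DNase I step before EDTA stop. RNAs were reverse transcribed with template switching and Illumina-sequenced, with DNA sequencing mapping barcodes to variants. Relative activity is the variant's cleaved/total read fraction divided by wild type's (minimum 5 reads), averaged across three batches.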
With C37U U51A A56G U69C the self-cleavage was 0.16.
G33U A45U U76C gave a self-cleavage of 0.11.
C34U U49C U54C showed a self-cleavage of 0.11.
Work on G33A U41A U54C U69G yielded a self-cleavage of 0.07.
G33A C38U A56U A64G G70A U72A gave a self-cleavage of 0.06.
Variant C38A U51G A64U U67C has a self-cleavage of 0.05.
A35G U58A A75G gave a self-cleavage of 1.02.
In the case of A35G A45G U51C A57G U67C, the self-cleavage is reported as 0.4.
For C37G U41G U51C U54C U72C A75G, the self-cleavage was 0.18.
With C38A G53C U78C the self-cleavage was 0.13.
A35G A47G A57G showed a self-cleavage of 1.2.
G33C U43C U54C C62U gave a self-cleavage of 0.1.
In the case of A35G G42C A75G, the self-cleavage is reported as 0.16.
Variant A35G A47U U74C has a self-cleavage of 1.16.
In the case of G33U A35U C37G U80C, the self-cleavage is reported as 0.28.
In the case of C34U U66C U80C, the self-cleavage is reported as 0.17.
Work on G33A U41A U49C U54A U72A yielded a self-cleavage of 0.08.
With C38A U41A U51C A64G A65G the self-cleavage was 0.28.
A35U U54C G73U A77G showed a self-cleavage of 1.21.
C34G G42A A56U U80A showed a self-cleavage of 0.06.
In the case of A35U U58C G70A U78A U80A, the self-cleavage is reported as 0.12.
With G33U U43C U51G G61A U78C the self-cleavage was 0.07.
In the case of A35G U41C U51A A65C U78C, the self-cleavage is reported as 0.31.
In the case of G33U U41A C62U G73A, the self-cleavage is reported as 0.23.
With C38A U49A U66C the self-cleavage was 0.17.
With G33A C34U C62U the self-cleavage was 0.12.
Work on G36C C40A U54A yielded a self-cleavage of 0.32.
A35G U41A A47U U60C C62U G73U gave a self-cleavage of 0.07.
Work on A35G A64G U69C U78C yielded a self-cleavage of 1.08.
A35G U67A U72A showed a self-cleavage of 1.09.
C34U U41A U49A U69C U80A showed a self-cleavage of 0.16.
In the case of G36A U60A A75G, the self-cleavage is reported as 0.17.
With A35G A45U U54C A65G U66C the self-cleavage was 0.3.
In the case of A35U U43C U49C A56U U69C, the self-cleavage is reported as 0.08.
Work on A35G C39U U48C yielded a self-cleavage of 1.24.
Variant A35U A65G U80C has a self-cleavage of 0.24.
In the case of C38A A56U U78C, the self-cleavage is reported as 0.41.
For G36U U43C U76C, the self-cleavage was 0.14.
In the case of A35U C40A U72A, the self-cleavage is reported as 0.35.
C34A U49C A57G C59A A65G showed a self-cleavage of 0.38.
G36A C40U U43C U66C U69A gave a self-cleavage of 0.13.
Work on C37U U49C U51G U54C A64G yielded a self-cleavage of 0.13.
Variant A35C U54C C62U U69A U76G has a self-cleavage of 0.12.
C32U U74C A75U showed a self-cleavage of 0.51.
With C37U U54C U69A the self-cleavage was 0.53.
Work on C38A A64U C68U U72C yielded a self-cleavage of 0.14.
Variant A35U U51C G63U U76A has a self-cleavage of 0.36.
For A35G U41G U51C, the self-cleavage was 0.18.
With C34U U41A U48C A64U the self-cleavage was 0.19.
For G33C U69C A77G, the self-cleavage was 0.12.
Work on G33A U58C U69C yielded a self-cleavage of 0.1.
For A35G U60A U72A, the self-cleavage was 0.63.
With A35G A56G U74C the self-cleavage was 1.25.
In the case of A35U U41C U60C U69C U72C U80C, the self-cleavage is reported as 0.16.
In the case of G33C A47U U80C, the self-cleavage is reported as 0.16.
C34U C40U A56G A65G U72C U80A gave a self-cleavage of 0.07.
Work on A35G U43G U69C U76C yielded a self-cleavage of 0.08.
Work on A35G U41A A56G U58C C71A U74C U80C yielded a self-cleavage of 0.05.
A35U U58A C62U showed a self-cleavage of 0.08.
C37U A45G A64U U67C U72A gave a self-cleavage of 0.16.
Work on A35U A45G A56U U74A U80C yielded a self-cleavage of 0.25.
For G36A U51A G73U, the self-cleavage was 0.28.
Work on A35G C44A U66A U69C A75G U80C yielded a self-cleavage of 0.25.
In the case of A35G U67C U74A, the self-cleavage is reported as 0.59.
With A35G U67C U80C the self-cleavage was 0.66.
Work on A35G A45G U74C yielded a self-cleavage of 1.27.
C38A U48C A56U U60C U69G gave a self-cleavage of 0.13.
Variant A35G U49C G55C U80C C81U has a self-cleavage of 1.03.
Work on A35G U49A A56G C79A yielded a self-cleavage of 1.1.
In the case of A35G A45C U51A, the self-cleavage is reported as 1.29.
In the case of G36C C37A A57U, the self-cleavage is reported as 0.24.
Work on A35G A57G U74C yielded a self-cleavage of 1.28.
With A35G C44U A47G the self-cleavage was 0.74.
For G33A G36A A64U, the self-cleavage was 0.1.
Variant C37U U41C G53A A75G U78C has a self-cleavage of 0.22.
For G33A A45G U51A A56G U80C, the self-cleavage was 0.21.
G33C U41A U58A gave a self-cleavage of 0.14.
G33A U67C U80C gave a self-cleavage of 0.15.
In the case of G36U U48C A64U U78C, the self-cleavage is reported as 0.06.
A35C A56U A57G U69A A77G gave a self-cleavage of 0.15.
Variant A35U C59G C68G has a self-cleavage of 0.1.
Variant G33A A45G A64U has a self-cleavage of 0.22.
Work on A35G A45U A56G A57G U58A U67C U74C yielded a self-cleavage of 0.28.
For G36A A45G A75C, the self-cleavage was 0.19.
C37U C40U U58C A65G showed a self-cleavage of 0.07.
With A35G U54A A64G U72C U78A the self-cleavage was 1.31.
Variant A35G U60A C81U has a self-cleavage of 1.24.
A35G U49A A56U gave a self-cleavage of 1.25.
For A35U A45C U72C, the self-cleavage was 0.11.
With C34U U43C U69C the self-cleavage was 0.1.
G33A A45G A57G U66C showed a self-cleavage of 0.15.
Variant C37G U66C U80C has a self-cleavage of 0.52.
With G33C U54C A77U the self-cleavage was 0.16.
With G33C A64G A75G U80A the self-cleavage was 0.06.
In the case of A35G U51G U54C U66C, the self-cleavage is reported as 1.21.
A35G A45G U60C gave a self-cleavage of 1.43.
A35U U41A U48C showed a self-cleavage of 0.25.
A35G U51A U72C gave a self-cleavage of 1.27.
A35G A57G U80A gave a self-cleavage of 1.25.
Variant A35U U60C A64U has a self-cleavage of 0.39.
With A35G U72C U78C U80C the self-cleavage was 1.23.
A35G A64U U69A U80C showed a self-cleavage of 0.54.
A35U C38U U60A U67C gave a self-cleavage of 0.08.
With A35U A45G A65U the self-cleavage was 0.1.
Work on A35G A64G C68U yielded a self-cleavage of 1.23.
A35C C38U U76A gave a self-cleavage of 0.56.
In the case of C37A C39A A56G G61A A77U, the self-cleavage is reported as 0.11.
C34U C37U U66C showed a self-cleavage of 0.17.
A35G U41C U60G gave a self-cleavage of 0.91.
For A35G U41C A57G A64G U67C U78G, the self-cleavage was 0.57.
A35G G52A A56G gave a self-cleavage of 1.24.
For A35U U43C U51C, the self-cleavage was 0.26.
C37U G42C A64G U66C gave a self-cleavage of 0.07.
Variant C37G A45U A65U has a self-cleavage of 0.46.
In the case of A35U U41A A45C C71G U76A, the self-cleavage is reported as 0.03.
Work on A35U A47G U76C yielded a self-cleavage of 0.35.
A35G C39A A56G showed a self-cleavage of 0.58.
G33U C40U U54C U69C U78A gave a self-cleavage of 0.11.
For A35G U41A G53A, the self-cleavage was 0.38.
A35G U41A U72A showed a self-cleavage of 0.35.
C34U U72C U80C showed a self-cleavage of 0.59.
Work on A35G A45U U67A yielded a self-cleavage of 0.25.
With A35G U54C A56U the self-cleavage was 1.17.
For G36C U41A G61C, the self-cleavage was 0.08.
A35U A45C U49G showed a self-cleavage of 0.39.
With G36A U49A G52C U54C G61U U69C the self-cleavage was 0.07.
G33A U41C G53C C71U U78A gave a self-cleavage of 0.01.
G33A G36A U54C showed a self-cleavage of 0.16.
For C37U A56G A57G U72C, the self-cleavage was 0.16.
With A35G A65C U67C U72A U78C U80C the self-cleavage was 0.43.
G36U U60C G61C U66C gave a self-cleavage of 0.05.
For G33U U49C A77U, the self-cleavage was 0.15.
For A35C U48C U66C U69A, the self-cleavage was 0.34.
G33A U41G U72C showed a self-cleavage of 0.1.
A35U G70C U80C gave a self-cleavage of 0.15.
A35G A56G C59A gave a self-cleavage of 0.72.
Variant G33A U72G U78C has a self-cleavage of 0.2.
Variant A35G U41A C62U A64C has a self-cleavage of 0.23.
For A35U U51C A57G U69A, the self-cleavage was 0.24.
A35U C44U A57U G70C U80C showed a self-cleavage of 0.11.
A35G U54A A57G gave a self-cleavage of 1.23.
G33A U60A U67C gave a self-cleavage of 0.07.
In the case of A35U A56G U67G U72G U80A, the self-cleavage is reported as 0.07.
With G33A A45G A64U A77G the self-cleavage was 0.1.
Variant A35U U72C U80C has a self-cleavage of 0.67.
Variant A35U U41C A57G has a self-cleavage of 0.36.
For A35G U49C U58C U60A, the self-cleavage was 0.1.
With C34G U41A U78C the self-cleavage was 0.12.
C37A U43C U80A showed a self-cleavage of 0.13.
Variant A35U U41C G42C U66C has a self-cleavage of 0.13.
In the case of C37A U51C A77G, the self-cleavage is reported as 0.21.
Variant G36C G42A A75U has a self-cleavage of 0.21.
In the case of C34G U49C A56G U72C, the self-cleavage is reported as 0.1.
A35G U41C U76A showed a self-cleavage of 1.26.
A35U A47G U60C A77G showed a self-cleavage of 0.15.
With C38A A47G U72C the self-cleavage was 0.11.
With A35G A45U C59A U69A U76C the self-cleavage was 0.16.
Variant G36A U58C U69C U80A has a self-cleavage of 0.12.
With A35U U48C U67C U69C the self-cleavage was 0.13.
Variant A35U U58C U72G has a self-cleavage of 0.16.
With C34A A35G G36C U41C U80C the self-cleavage was 0.5.
For C34U U67C U72C G73U U80C, the self-cleavage was 0.18.
In the case of A35G U51A C59A, the self-cleavage is reported as 1.22.
With A35C U41C U60A U72C U74A the self-cleavage was 0.75.
For C34U C71G U80G, the self-cleavage was 0.09.
With G36U U41C U74A the self-cleavage was 0.6.
In the case of A35U C37A U43C, the self-cleavage is reported as 0.18.
